Results taken from ChEMBL document CHEMBL4888484, “Replenishing the malaria drug discovery pipeline: Screening and hit evaluation of the MMV Hit Generation Library 1 (HGL1) against asexual blood stage Plasmodium falciparum ,using a nano luciferase reporter read-out” (2022).
Hit rate of the full screen: of about 150,000 compounds, about 540 (0.36%) showed an effect of 50% or more. The list shows a part of the results.

Each compound was assayed on Plasmodium falciparum (assay: Primary screen in NF54 nanoGlo assay, in single point, at 2uM, 72h; a lower Z score goes with more inhibition). Details: timepoint 72 hour.
Format: functional, Erythrocyte

Row | Structure (SMILES) | % Inhibition [%] | Z score
1 | CCN(CC)c1ccc(C(=O)NC[C@H]2CCS(=O)(=O)C2)cn1 | -26 | 2.32
2 | O=S(=O)(c1ccccc1)N1CCC(n2ccnn2)CC1 | -7 | 1.09
3 | Cc1ccc(OC2CCN(Cc3ccncc3)CC2)c(C(=O)N2CCCCO2)c1 | -10 | 0.86
4 | CN(C)c1ccc(C(=O)N2CC(O)(CO)C2)cc1 | 4 | -0.73
5 | O=C1CCNC(=O)C2(CCN(C(=O)C3CCC3)CC2)Cc2cccc(c2)Oc2ccc(cc2)C[C@@H](C(=O)O)N1 | -16 | 2.08
6 | CC[C@@H](CO)N1CCN(c2nnc(Cc3ccccc3)s2)CC1 | -6 | 0.82
7 | CN(Cc1ccco1)C(=O)c1cc(NC(=O)C2CCC2)c2c(c1)nc(-c1ccncc1)n2C | 9 | -1.21
8 | CC(C)(C)c1ccc(C(=O)N2CCC[C@H](c3nc(O)c4nnn(Cc5cccc(F)c5)c4n3)C2)cc1 | 6 | -0.72
9 | O=S(=O)(c1ccc(F)cc1)N1CCN(CC2CC3C=CC2C3)CC1 (centres undefined) | -5 | 0.7
10 | CC1(C)CN(C(=O)[C@H]2C[C@@H]2c2cccc(Cl)c2)[C@H]2COC[C@H]21 | -9 | 1.39
11 | COC(=O)CC1(NCC(=O)Nc2ccc(C(C)C)cc2)CCS(=O)(=O)CC1 | -12 | 2.11
12 | Cc1nc2n(n1)CC(NC1CCCN(C(=O)OC(C)(C)C)C1)CC2 (centres undefined) | -10 | 1.86
13 | O=S(=O)(C[C@H]1CCCO1)NC1CCC2(CC1)CC2 | -1 | 0.07
14 | CCN(Cc1cnn(CC)c1)C(=O)c1cccc(NCc2cccs2)c1 | -6 | 0.6
15 | COc1ccc(C(=O)N2CCC[C@H](c3ccccc3C)C2)c(F)c1F | 10 | -1.25
16 | CCNC(=O)N[C@H]1CO[C@H]2[C@@H]1OC[C@@H]2Nc1nccc(-c2ccccc2OC)n1 | 7 | -0.77
17 | Cc1cn(-c2ccccc2Cl)nc1NC(=O)N[C@H]1CCCOC1 | -10 | 1.4
18 | COc1ccc(N2C(=O)C3C4CCCC4CN3C2=O)cc1NS(C)(=O)=O (centres undefined) | -8 | 0.95
19 | Cc1ccc([C@]2(C)NC(=O)N(Cc3cccc(F)c3)C2=O)o1 | -9 | 0.73
20 | COc1cc(OC)cc(Oc2ccc(CNCc3n[nH]c(C)n3)cc2)c1 | -13 | 1.17
21 | CCC(=O)N1CCC(NC(CN2CCC(C)CC2)c2cccs2)C1 (centres undefined) | -7 | 1.34
22 | O=S(=O)(Nc1cccc(C2OCCCO2)c1)c1ccccc1 | -5 | 0.86
